Read counts are not given, so values of variants with three or more changes are uncertain.
B1: LINE1-full (parent)
chain: UACGUAGGUGGUUUUCCCCUGAUAGUGCUAAGGGGGCCUGGAAGUUUGGACUGGGCAGAGCUCAACACAGCGUGGCAAAGUGGCUGUGGCUAGACUGCCUCUCUGGAUUCCUCGUCACUCAGCAGGGCAUCUCUGAGAGAAAUGCC

Variants of: B1
Experiment: self-cleavage, relative activity (ratio to wild type); higher = more cleavage; in vitro, sequencing; the parent is a self-cleaving ribozyme
With UACGUAGGUGGUUUUCCCCUGAUAGUGCUAAGGGGGCCUGGAAGUUUGGACUGGGCGGAGCUCAACACAGCGUGGCAAAGUGGCUGUGGCUAGACUGCCUCUCUGGGUUCCUUGUCACUCAGCAGGGCAUCUCUGAGAGAAAUGCC [A57G A107G C113U] the self-cleavage was 0.26. Variant UACGUAGGUGGUUUUCCCCUGAUAGUGCUAAGGGGGCCUGGAAGUUUGGACUGGGCGGAGCUCAACACAGCGUGGCAAAGUGGCUGCGGCUAGACUGCCUCUCAGGAUUCCUCGUCACUCAGCAGGGCAUCUCUGAGGGAAAUGCC [A57G U87C U104A A138G] has a self-cleavage of 0.2. For UACGUAGGUGGUUUUCCCCUGAUAGUGCUAAGGGGGCCUGGAAGUUUGGACUGGGCGGAGCUCAACACAGCGUGGCAAAGUGGCUGUGGCUAGGCUGCCUCUCUGGAUUCCUCGCCACUCAGCAGGGCAUCUCUGAGAGAAAUGCC [A57G A94G U115C], the self-cleavage was 0.48. Variant UACGUAGGUGGUUUUCCCCUGAUAGUGCUAAGGGGGCCUGGAAGUUUGGACUGGGCGGAGCUUAACACAGCGUGGCAAAGUGGCUGUGGCUAGACUGCCUCUCUGGAUUCCUCGUCACUCAGCAGGGCACCUCUGAGAGAAAUGCC [A57G C63U U130C] has a self-cleavage of 0.28. UACGUAGGUGGUUUUCCCCUGAUAGUGCUAAGGGGGCCUGGAAGUUUGGACUGGGCGGAGCUCAACACAGCGUGGCGAAGUGGCUGUGGCUAGACUGCCUCUCUGGAUUCCUCGUCACUCAGCAGGGCAUCUCUGAGAGAGAUGCC [A57G A77G A141G] gave a self-cleavage of 1.58. Work on UACGUAGGUGGUUUUCCCCUGAUAGUGCUAAGGGGGCCUGGAAGUUUGGACUGGGCGGAGCUCAAUACAGCGCGGCAAAGUGGCUGUGGCUAGACUGCCUCUCUGGAUUCCUCGUCACUCAGCAGGGCAUCUCUGAGAGAAAUGCC [A57G C66U U73C] yielded a self-cleavage of 0.03. In the case of UACGUAGGUGGUUUUCCCCUGAUAGUGCUAAGGGGGCCUGGAAGUUUGGACUGGGCGGAGCUCAACACAGCGUGCCAAAGUGGCUGUGGCUAGACUGCCUCUCUGGAUUCCUCGUCACUCGGCAGGGCAUCUCUGAGAGAAAUGCC [A57G G75C A121G], the self-cleavage is reported as 0.59. In the case of UACGUAGGUGGUUUUCCCCUGAUAGUGCUAAGGGGGCCUGGAAGUUUGGACUGGGCGGAGCUCAACACAGCGUGGCAAAGUGGAUGUGGCUAGACUGCCUCUCUGGAUUCCUCGUCACUCGGCAGGGCAUCUCUGAGAGAAAUGCC [A57G C84A A121G], the self-cleavage is reported as 0.13. UACGUAGGUGGUUUUCCCCUGAUAGUGCUAAGGGGGCCUGGAAGUUUGGACUGGGCGGAGCACAACACGGCGUGGCAAAGUGGCUGUGGCUAGACUGCCUCUCUGGAUUCCUCGUCACUCAGCAGGGCAUCUCUGAGAGAAAUGCC [A57G U62A A69G] showed a self-cleavage of 0.06. For UACGUAGGUGGUUUUCCCCUGAUAGUGCUAAGGGGGCCUGGAAGUUUGGACUGGGCGGAGCUCAACACAGCGUGGCAGAGUGGCCGUGGCUAGACUGCCUCUCUGGAUUCCUCGUCACUCAGCAGGGCAUCUCUGAGGGAAAUGCC [A57G A78G U85C A138G], the self-cleavage was 0. UACGUAGGUGGUUUUCCCCUGAUAGUGCUAAGGGGGCCUGGAAGUUUGGACUGGGCGGAGCUCAACACAGCGUGGCAAAGUGGCUGUGGCUAGACUGCCUCUCUGGAUUCCUCGUUACUCAACAGGGCAUCUCUGAGGGAAAUGCC [A57G C116U G122A A138G] showed a self-cleavage of 0.88. For UACGUAGGUGGUUUUCCCCUGAUAGUGCUAAGGGGGCCUGGAAGUUUGGACUGGGCGGAGCUCAACACAGCGAGGUAAAGUGGCUGUGGCUGGACUGCCUCUCUGGAUUCCUCGUCACUCAGCAGGGCAUCUCUGAGAGAAAUGCC [A57G U73A C76U A92G], the self-cleavage was 0.13. Variant UACGUAGGUGGUUUUCCCCUGAUAGUGCUAAGGGGGCCUGGAAGUUUGGACUGGGCGGAGCUCAACACAGCGUGGCAAAGUGGCUGUGGCUAGACUGCCUCUCUGGAUUCCUCGUCACUCAGCAGGGCAUCUCUGUGGGAAAUGCC [A57G A136U A138G] has a self-cleavage of 1.24. UACGUAGGUGGUUUUCCCCUGAUAGUGCUAAGGGGGCCUGGAAGUUUGGACUGGGCGGAGCUCAACACAGCGUGGCAGAGUGGCUGUGGCUAGACUGCCUCUCUGGAUUCCUCGUCACUCCGCAGGGCAUCUCUGAGAGAAAUGCC [A57G A78G A121C] showed a self-cleavage of 0.19. With UACGUAGGUGGUUUUCCCCUGAUAGUGCUAAGGGGGCCUGGAAGUUUGGACUGGGCGGAGCUCAACACAGCGUGGCAAAGUGGCAGUGGCUAGACUGCCUCUCAGGAUUCCUCGCUACUCAGCAGGGCAUCUCUGAGAGAAAUGCC [A57G U85A U104A U115C C116U] the self-cleavage was 0.03. With UACGUAGGUGGUUUUCCCCUGAUAGUGCUAAGGGGGCCUGGAAGUUUGGACUGGGCGGAGCUCAACACAGCGUGGCAGAGUGGCUGUGGCUUGACUGCCUCUCUGGAUUCCUCGUCACUCAGCAGGGCAUCUCUGAGAGAAAUGCC [A57G A78G A92U] the self-cleavage was 0.1. With UACGUAGGUGGUUUUCCCCUGAUAGUGCUAAGGGGGCCUGGAAGUUUGGACUGGGCGGAGCUCAACACAACGUGGCAAAGUGGCUGUGGCUAGACUGCCUCUCUGGAUUCCUCGUCACUCAGCAGGGCAUCUCUGAGAGCAAUGCC [A57G G70A A140C] the self-cleavage was 0.05. With UACGUAGGUGGUUUUCCCCUGAUAGUGCUAAGGGGGCCUGGAAGUUUGGACUGGGCGGAGCUCAACACAGCGUGGCAAAGCGGCUGUGGCUGGACUGCCUCUCUGGAUUCCUCGUCACUCAGCAGGGCAUCUCUGAGAGAAAUGCC [A57G U81C A92G] the self-cleavage was 0. For UACGUAGGUGGUUUUCCCCUGAUAGUGCUAAGGGGGCCUGGAAGUUUGGACUGGGCGGAGCUAAACACUGCGUGGCAAAGUGGCUGUGGCUAGACUGCCUCUCUGGAUUCCUCGUCACUCAGCAGGGCAUCUCUGAGAGAAAUGCC [A57G C63A A69U], the self-cleavage was 0.01. With UACGUAGGUGGUUUUCCCCUGAUAGUGCUAAGGGGGCCUGGAAGUUUGGACUGGGCGGAGCUCAACACAGCGUGGCAAAGUGGCUGUGGCUAGACUGCCUCUCUGGAUUCCUCGUCACUCAACAGGGCAUCUCCGAGAGAAAUGCC [A57G G122A U134C] the self-cleavage was 0.74.

From the RNAGym collection of RNA variant scans (doi:10.7554/elife.90254)
